The results in this text go back to the BET-seq Pho4 binding data (Le et al. 2018).

Some of the results follow. Values were computed here from the reads of four pooled replicates and scatter widely.

The assay concerns the target T1, Pho4 (S. cerevisiae) (UniProt P07270).
T1 sequence: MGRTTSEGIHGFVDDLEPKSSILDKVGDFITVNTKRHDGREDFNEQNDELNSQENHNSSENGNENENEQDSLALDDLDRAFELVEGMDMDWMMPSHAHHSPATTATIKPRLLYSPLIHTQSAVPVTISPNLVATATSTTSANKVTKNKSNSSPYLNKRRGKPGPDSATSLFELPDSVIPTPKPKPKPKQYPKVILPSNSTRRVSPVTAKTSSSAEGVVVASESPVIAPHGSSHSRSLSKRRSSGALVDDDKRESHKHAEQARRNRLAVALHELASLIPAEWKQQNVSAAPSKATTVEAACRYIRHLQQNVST
In words: relative binding free energy (BET-seq); higher = weaker binding. Particulars: reference: library average.
As for GGGGCCACGTGAAGGG, the “relative binding free energy” value stood at 0.16 kcal/mol.
In the case of TTGTTCACGTGAGAAG, the “relative binding free energy” value was 0.36 kcal/mol.
Then CTAGGCACGTGACGGT, with -0.04 kcal/mol.
As for GCTGGCACGTGATCGT, the figure is 0.01 kcal/mol; as for TATGGCACGTGTAGTA, -0.08 kcal/mol; as for GAAGGCACGTGTTGTC, 0.04 kcal/mol.
As for AGGGGCACGTGATTGA, the “relative binding free energy” value was -0.06 kcal/mol.
As for TGGTGCACGTGCATGT, the “relative binding free energy” value was -0.11 kcal/mol.
On to ATGGACACGTGCAGGA, for which the “relative binding free energy” value was found to be 0.03 kcal/mol.
As for GGATTCACGTGGTGCT, the “relative binding free energy” value turned out to be 0.15 kcal/mol.
Turning to GAAGGCACGTGTATGT, the “relative binding free energy” value was -0.15 kcal/mol.
Then AATTTCACGTGGTTTA, with 0.22 kcal/mol; and AGGGGCACGTGATATC, with 0.04 kcal/mol; and GTGAGCACGTGTATTA, with -0.18 kcal/mol.
AGGTGCACGTGGCTCA: the “relative binding free energy” value worked out at 0.04 kcal/mol.
Take GTGAGCACGTGTAGGA: the “relative binding free energy” value was -0.12 kcal/mol.
Consider CTGGACACGTGGGCGG, for which the “relative binding free energy” value was -0.06 kcal/mol.
On to GGGGGCACGTGGGCCT, for which the “relative binding free energy” value was -0.36 kcal/mol.
Regarding TGTAGCACGTGGGCAG, the “relative binding free energy” value was -0.26 kcal/mol.
Take GGTTGCACGTGGCTAT: the “relative binding free energy” value was -0.01 kcal/mol.
For TGTTCCACGTGTCTTT, the “relative binding free energy” value is 0.06 kcal/mol.
In the case of GAGATCACGTGGGAGG, the “relative binding free energy” value turned out to be 0.04 kcal/mol.
As for GGGTTCACGTGTTAAC, the figure is 0.29 kcal/mol.
Turning to AGTGGCACGTGCTTTT, the “relative binding free energy” value was -0.24 kcal/mol.
As for GTTATCACGTGGTGGA, the figure is 0.15 kcal/mol.
As for AGGGTCACGTGGCCAT, the figure is 0.1 kcal/mol; as for ACTATCACGTGGGAGG, 0.07 kcal/mol.
For AGAAGCACGTGATAGG, the “relative binding free energy” value turned out to be 0 kcal/mol.
As for TTAATCACGTGTTCAG, the figure is 0 kcal/mol.
Take TTAAACACGTGTGCTG: the “relative binding free energy” value stood at 0.08 kcal/mol.
As for GTATGCACGTGATATT, the figure is 0.07 kcal/mol.
On to TAATGCACGTGGTAAG, for which the “relative binding free energy” value is -0.09 kcal/mol.
Then ATGGACACGTGGCTGT, with -0.07 kcal/mol; and GACTTCACGTGTTTTG, with 0.23 kcal/mol; and AGCTGCACGTGGGCTG, with -0.07 kcal/mol.
As to AGTTCCACGTGGGAGT, the “relative binding free energy” value is -0.16 kcal/mol.
As for TTGGTCACGTGTTGCC, the figure is 0.14 kcal/mol.
With CTTTTCACGTGTATTG, the “relative binding free energy” value is 0.24 kcal/mol.
Regarding TTAGTCACGTGCTCTT, the “relative binding free energy” value worked out at 0.15 kcal/mol.
For the sequence AGTAGCACGTGTAGAT, the “relative binding free energy” value came to 0.08 kcal/mol.
Regarding GAGTTCACGTGTTTGG, the “relative binding free energy” value came to 0.24 kcal/mol.
As to AGGGCCACGTGTAAGG, the “relative binding free energy” value stood at 0.04 kcal/mol.
As to GGTTCCACGTGTGTGG, the “relative binding free energy” value is 0.07 kcal/mol.
For the sequence GTACTCACGTGGGTGT, the “relative binding free energy” value came out at 0.03 kcal/mol.
Turning to TTTCACACGTGTATTT, the “relative binding free energy” value is 0.05 kcal/mol.
Turning to GTTTACACGTGTGTTA, the “relative binding free energy” value was 0.23 kcal/mol.
TATAACACGTGGTTAA: the “relative binding free energy” value is -0.04 kcal/mol.
As to AAGATCACGTGGGCGT, the “relative binding free energy” value was found to be 0.1 kcal/mol.
As for CGTTCCACGTGGGTTT, the “relative binding free energy” value is -0.02 kcal/mol.
As for ATAGACACGTGACTGG, the “relative binding free energy” value was 0.06 kcal/mol.
With TGAGTCACGTGGCAGT, the “relative binding free energy” value was -0.06 kcal/mol.
As to ATTCTCACGTGGGAGG, the “relative binding free energy” value turned out to be 0.09 kcal/mol.
As for GTGTTCACGTGCTTAT, the figure is 0.27 kcal/mol; as for GTATGCACGTGAACGT, 0.12 kcal/mol; as for ATAATCACGTGTATAG, 0.12 kcal/mol.
For TTAACCACGTGTGTAT, the “relative binding free energy” value was -0.03 kcal/mol.
For the sequence ACGGTCACGTGTATTG, the “relative binding free energy” value came out at 0.08 kcal/mol.
In the case of AAAATCACGTGGGGAG, the “relative binding free energy” value is -0.01 kcal/mol.
Then CATATCACGTGTTTTG, with 0.26 kcal/mol.
On to TTTGCCACGTGGTAGG, for which the “relative binding free energy” value was -0.18 kcal/mol.
For the sequence TGTCTCACGTGTAGAT, the “relative binding free energy” value is 0.21 kcal/mol.
Take GTGTGCACGTGGATGG: the “relative binding free energy” value was found to be 0.08 kcal/mol.
Take GGTGACACGTGGCGAG: the “relative binding free energy” value was -0.12 kcal/mol.
For GGTGTCACGTGCTGGG, the “relative binding free energy” value was determined as 0.13 kcal/mol.
For the sequence GGGGACACGTGTGGAC, the “relative binding free energy” value was 0.09 kcal/mol.
Turning to GTCGGCACGTGTGAGG, the “relative binding free energy” value was found to be 0.15 kcal/mol.
As for TAAGGCACGTGCGAGG, the “relative binding free energy” value was -0.15 kcal/mol.
In the case of AGGCACACGTGTTGGT, the “relative binding free energy” value amounted to 0.17 kcal/mol.
Turning to TGAGTCACGTGCTGGG, the “relative binding free energy” value was determined as 0.1 kcal/mol.
As to TTTTGCACGTGTCGAT, the “relative binding free energy” value was -0.02 kcal/mol.
As for ACGTACACGTGTTTTG, the “relative binding free energy” value came to 0 kcal/mol.
On to TTTGACACGTGGGTGC, for which the “relative binding free energy” value was -0.16 kcal/mol.
Regarding CTTCGCACGTGAGGTG, the “relative binding free energy” value was 0.23 kcal/mol.
As for CTTGTCACGTGATAGT, the figure is 0.04 kcal/mol; as for GCGTGCACGTGGGAGA, -0.04 kcal/mol.
ATACACACGTGGGGTG: the “relative binding free energy” value is -0.28 kcal/mol.
For TGAGTCACGTGAGGAC, the “relative binding free energy” value is 0.4 kcal/mol.
As for CTGTGCACGTGGGCTA, the “relative binding free energy” value was -0.19 kcal/mol.
Regarding GTGGCCACGTGTGGCT, the “relative binding free energy” value is -0.08 kcal/mol.
For the sequence TTTGTCACGTGTTCGT, the “relative binding free energy” value worked out at 0.14 kcal/mol.
Then GGTTGCACGTGATGCC, with 0.22 kcal/mol; and CATTTCACGTGGGGTA, with 0.06 kcal/mol.
As for ATTGTCACGTGGTCAC, the figure is 0.08 kcal/mol; as for CGTAGCACGTGTAAGT, -0.02 kcal/mol.
On to TGGGACACGTGTATGT, for which the “relative binding free energy” value is -0.02 kcal/mol.
For GGTACCACGTGTGGGG, the “relative binding free energy” value is -0.01 kcal/mol.
As for TAATTCACGTGTCTGG, the “relative binding free energy” value worked out at 0.25 kcal/mol.
As for TTCGTCACGTGTGTTA, the “relative binding free energy” value is 0.15 kcal/mol.
GGAAACACGTGGGTCG: the “relative binding free energy” value was -0.08 kcal/mol.
As to CTGTTCACGTGGTGGG, the “relative binding free energy” value stood at 0.22 kcal/mol.
In the case of GGTTTCACGTGAGACT, the “relative binding free energy” value is 0.44 kcal/mol.
In the case of GAAGTCACGTGTGTTG, the “relative binding free energy” value came to 0.17 kcal/mol.
Then TGTCGCACGTGATATG, with 0.01 kcal/mol; and TGGTTCACGTGGTAAT, with 0.29 kcal/mol; and TTTGTCACGTGTCTTC, with 0.26 kcal/mol.
With GTCGCCACGTGGTGTG, the “relative binding free energy” value is -0.08 kcal/mol.
With TTACGCACGTGAGGTG, the “relative binding free energy” value was -0.02 kcal/mol.
With GATTTCACGTGGTGCC, the “relative binding free energy” value was 0.55 kcal/mol.
As for TCGTGCACGTGGGATG, the figure is -0.06 kcal/mol.
TGGAACACGTGGTCTG: the “relative binding free energy” value was found to be 0.04 kcal/mol.
For the sequence TTGCTCACGTGGTTCG, the “relative binding free energy” value was 0.05 kcal/mol.
Then GGGCGCACGTGTGGAC, with -0.03 kcal/mol.
As to CATTCCACGTGTGGTG, the “relative binding free energy” value came to 0.07 kcal/mol.
As for GATGGCACGTGGGGAA, the figure is -0.1 kcal/mol; as for GTTTTCACGTGCCGTG, 0.32 kcal/mol; as for CGTGGCACGTGTGAAA, -0.03 kcal/mol.
Regarding CGTGTCACGTGGCTGG, the “relative binding free energy” value was -0.08 kcal/mol.
As for GGATGCACGTGTTGCG, the figure is -0.03 kcal/mol.
For TCGATCACGTGAGTTG, the “relative binding free energy” value amounted to 0.16 kcal/mol.
Regarding GTTGGCACGTGTTACT, the “relative binding free energy” value was -0.19 kcal/mol.
Consider TTAGGCACGTGTCTGA, for which the “relative binding free energy” value was -0.09 kcal/mol.
For TGAGGCACGTGAAAGA, the “relative binding free energy” value is 0.13 kcal/mol.
For the sequence TGTTTCACGTGGGCTG, the “relative binding free energy” value is 0.22 kcal/mol.
Regarding TATGGCACGTGAATAA, the “relative binding free energy” value is 0.17 kcal/mol.
On to CATTCCACGTGTTGGG, for which the “relative binding free energy” value was 0.1 kcal/mol.
